Publication PMC4336329 (PLoS ONE, 2015)
About 2,200 (0.71%) of roughly 310,000 compounds showed an effect of 50% or more. Effects have a minus sign here. Some of the results follow.

Target: human ether-à-go-go-related gene (hERG) potassium channel (human, UniProt Q12809)
Assay: primary screen, population patch clamp on CHO cells stably expressing hERG

Chain of human ether-à-go-go-related gene (hERG) potassium channel (Q12809 whole entry, looked up): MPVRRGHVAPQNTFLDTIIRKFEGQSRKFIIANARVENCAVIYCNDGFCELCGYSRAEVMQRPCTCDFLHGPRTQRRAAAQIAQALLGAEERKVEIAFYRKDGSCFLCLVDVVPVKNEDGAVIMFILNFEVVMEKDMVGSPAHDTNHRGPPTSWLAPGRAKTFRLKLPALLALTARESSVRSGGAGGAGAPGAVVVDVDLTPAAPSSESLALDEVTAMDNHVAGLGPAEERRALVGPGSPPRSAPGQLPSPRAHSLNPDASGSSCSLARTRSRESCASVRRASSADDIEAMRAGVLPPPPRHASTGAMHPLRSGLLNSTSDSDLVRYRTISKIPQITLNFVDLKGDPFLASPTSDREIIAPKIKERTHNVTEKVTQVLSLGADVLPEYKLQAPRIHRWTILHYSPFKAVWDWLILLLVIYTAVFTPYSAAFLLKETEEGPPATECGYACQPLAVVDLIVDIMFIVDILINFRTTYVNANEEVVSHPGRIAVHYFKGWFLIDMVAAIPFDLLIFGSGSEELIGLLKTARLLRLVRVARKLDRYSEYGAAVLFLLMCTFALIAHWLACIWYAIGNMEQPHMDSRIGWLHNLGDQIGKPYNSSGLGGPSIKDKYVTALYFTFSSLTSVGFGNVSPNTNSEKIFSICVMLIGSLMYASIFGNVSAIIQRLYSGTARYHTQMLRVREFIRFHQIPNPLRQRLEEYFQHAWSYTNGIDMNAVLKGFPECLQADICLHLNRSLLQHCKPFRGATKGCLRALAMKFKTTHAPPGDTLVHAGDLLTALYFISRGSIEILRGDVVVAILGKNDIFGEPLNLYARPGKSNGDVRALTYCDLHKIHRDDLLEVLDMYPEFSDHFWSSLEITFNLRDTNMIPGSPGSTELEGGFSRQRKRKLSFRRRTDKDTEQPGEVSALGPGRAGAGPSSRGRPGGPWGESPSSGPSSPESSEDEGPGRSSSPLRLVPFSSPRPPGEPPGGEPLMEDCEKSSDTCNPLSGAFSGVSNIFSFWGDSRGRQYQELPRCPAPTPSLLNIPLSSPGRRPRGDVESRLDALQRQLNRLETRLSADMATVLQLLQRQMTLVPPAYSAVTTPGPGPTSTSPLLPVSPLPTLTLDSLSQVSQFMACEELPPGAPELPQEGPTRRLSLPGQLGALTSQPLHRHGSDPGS

SMILES | hERG current change (%, negative = inhibition) at 1uM [%]
COc1cccc(OCC(=O)NN=C2c3ccccc3-c3ccccc32)c1 | 0.0134
O=c1cc(CSc2ccc(Cl)cc2)nc(-c2ccccc2)[nH]1 | 4
Nc1nc2ccccc2n1CCOc1ccc(Cl)cc1 | 0.404
COc1ccc(C(Nc2ccccc2)P(=O)(Oc2ccccc2)Oc2ccccc2)cc1 (stereo not shown) | 17.5
CN(C)C(=O)c1ccc(OCC(F)(F)F)nc1 | 10.1
O=C(c1ccc(F)cc1)N1CCC(C(=O)N2CCN(S(=O)(=O)c3cccc(Cl)c3)CC2)CC1 | -16.9
COc1ccc(CCN(C)C(=O)c2cc(S(=O)(=O)NCc3ccccc3)ccc2C)cc1OC | 4.37
CCOC(=O)/C(=N\Nc1ncnc2ccccc12)c1ccc(C)cc1 | 5.92
Cc1cc(C)cc(-n2c(SCC(=O)NCc3ccc4c(c3)OCO4)nc3ccccc3c2=O)c1 | 13.4
COc1ccc(NS(=O)(=O)c2ccc(C(=O)N3CCN(Cc4ccccc4)CC3)cc2)cc1 | -4.78
CC(CCN1C(Nc2ccccc2)=NC[C@@H]1Cc1ccccc1)c1ccccc1 (stereo partly shown) | -52.7
COc1cccc(-c2nn(-c3ccccc3)cc2C(=O)n2nnc3ccccc32)c1 | -4.53
CN1C(=O)CSc2ccc(NC(=O)NCc3ccccc3)cc21 | 4.71
COc1cc(/C=N/O)cc(Cl)c1OC | 11.5
COCCCNC(=O)C1CCN(S(=O)(=O)c2ccc3nc4c(c(C(=O)O)c3c2)CCCCC4)CC1 | 23.7
CCN(Cc1ccccc1)C(=O)CCc1nc(-c2ccc(C)cc2)no1 | -0.651
O=C(NC(=O)c1ccccc1)OCC1CCCN2CCCCC12 (stereo not shown) | -34.3
Cc1nnsc1S(=O)c1ccccc1Cl (stereo not shown) | 13.5
CC(C)(C)OC(=O)NC(Cc1ccccc1)C(=O)O (stereo not shown) | -30.6
CCc1cccc(NC(=O)CCS(=O)(=O)c2cccc3nonc23)c1 | 5.12
CCOc1ccccc1-n1c(SCC(N)=O)nnc1-c1cccnc1 | 1.95
CC(C)Oc1ccc(N2CC(C(=O)Nc3ccc(N4CCOCC4)cc3)CC2=O)cc1 (stereo not shown) | 24.6

SMILES | hERG current change (%, negative = inhibition) at 1uM [%]
Cc1ccc(N(C)S(=O)(=O)c2cccc(C(=O)NCC(c3ccco3)N3CCCC3)c2)cc1 (stereo not shown) | -11.3
O=S(=O)(Nc1nnc(C2CC2)s1)c1ccccc1 | 10.6
C=CCOc1c(CNc2ccc(S(N)(=O)=O)cc2)cccc1OC | 12.6
O=C(Nc1cccc(Oc2c(F)c(F)c(F)c(F)c2F)c1)N1C[C@@H]2C[C@@H](C1)c1cccc(=O)n1C2 | 3.4
Cc1ccc(N2C(=O)NC(=O)/C(=C\c3cc(C)n(-c4sc5c(c4C#N)CCCC5)c3C)C2=O)cc1 | -3.1
CN1CCN(S(=O)(=O)c2ccc(NC(=O)c3ccccc3F)cc2)CC1 | 9.99
COc1ccc2cc(C(=O)N/N=C/c3cc(OC)c(OC)c(OC)c3)[nH]c2c1 | 12.3
CCOC(=O)N1CCN(CC(=O)Nc2ccc(OC)cc2)CC1 | 9.1
O=[N+]([O-])c1ccc(-c2nn(-c3ccccc3)cc2/C=N/n2c(-c3ccncc3)n[nH]c2=S)cc1 | 13.5
CCCc1cc(=O)[nH]c(Nc2ccc(Cl)cc2)n1 | 2.78
COc1ccc(/C=N/NC(=O)c2ccc(Br)o2)cc1Cn1cc([N+](=O)[O-])cn1 | -0.0386
Cc1cc(C)c(NC(=S)N(CCN(C)C)Cc2cccs2)c(C)c1 | 13.7
CC(C)CCNC(=O)c1onc(CSc2ccc(F)c(F)c2)c1C(=O)NCCC(C)C | 13.9
COc1ccc(OC)c(-n2nnnc2SCC(=O)Nc2ccc3c(c2)OCCO3)c1 | 12.6
O=C(Nc1nnc(-c2ccc3c(c2)CCCC3)o1)c1c(F)cccc1F | 9.88
Nc1nc2ccc(C(=O)NC3CCCCC3)cc2s1 | 6.38
CC(=O)Nc1cccc(C(=O)OCC(=O)c2ccc3c(c2)OCO3)c1 | 14.8
CCC(C(=O)Nc1ncc(C)s1)c1ccccc1 (stereo not shown) | 21
CCOc1ccc(N(C)S(=O)(=O)c2ccc(C)c(C(=O)NCc3cccs3)c2)cc1 | 5.63
CCCNS(=O)(=O)c1ccc(CCC(=O)N2CCN(CC)CC2)cc1 | 6.58
Cc1ccccc1-n1nc2c(c1NC(=O)C(C)C)CS(=O)(=O)C2 | 22.8
